Experimental data taken from ChEMBL document CHEMBL4888484, “Replenishing the malaria drug discovery pipeline: Screening and hit evaluation of the MMV Hit Generation Library 1 (HGL1) against asexual blood stage Plasmodium falciparum ,using a nano luciferase reporter read-out” (2022).
Among all 150,000 compounds or so, about 540 (0.36%) showed an effect of 50% or more. The list shows a part of the results.

Tested on: Plasmodium falciparum
Assay: Primary screen in NF54 nanoGlo assay, in single point, at 2uM, 72h; a lower Z score goes with more inhibition
Assay type: functional, Erythrocyte
Conditions: timepoint 72 hour

SMILES | % Inhibition | Z score
CCN(CC)Cc1cnc2c(C(=O)N(C)Cc3cc[nH]n3)cnn2c1 | -9% | 1.25
COc1ccccc1/C=C/CN1CCC(N2CCC(C(=O)N3CCCC3)CC2)CC1 | -16% | 1.38
CC1CN(C)CCC1N(C)C(=O)c1snc(O)c1Cl (centres undefined) | -5% | 0.83
CCn1ncnc1[C@H](C)NC(=O)c1cnnn1-c1ccccc1 | 6% | -1.08
CCCc1cc(=O)n(CC(=O)N2CCN(c3ccc(F)cc3)CC2)cn1 | -9% | 1.47
CC(C)CNC(=O)C(=O)NCc1ccc(-c2ccoc2)o1 | 1% | -0.07
CN(Cc1csc(-c2ccccc2)n1)C(=O)c1ccccc1-n1cncn1 | -10% | 1.33
CN(C[C@H]1COc2ccccc2O1)C(=O)Cn1c(CS(C)(=O)=O)nc2ccccc21 | 5% | -0.75
Cc1nc([C@H]2CCOC2)cc(N2CCN(c3cnccn3)CC2)n1 | 2% | -0.31
Cc1nn(CC(C)C)c(Cl)c1CN1CCC2(CC1)NC(=O)NC2=O | 5% | -0.58
CCC1CCCN(C(=O)C2CN(C)CCO2)CC1 (centres undefined) | -7% | 0.63
CC(O)CC1CCCN1C(=O)c1ccc2c(=O)[nH][nH]c2c1 (centres undefined) | -16% | 2.08
COCC(=O)N[C@@H]1CN(C(=O)CCCCc2ccccc2)C[C@H]1c1nccn1C | -2% | 0.31
Cc1c[nH]c([C@H](C)NC(=O)CCc2cnccn2)n1 | -10% | 1.08
Cc1nc2cc(NC(=O)c3cccc4ccccc34)ccc2o1 | -9% | 1.04
O=C([C@@H]1NCCc2ccccc21)N1CCC(F)(F)CC1 | 10% | -1.14
Cn1cc(CC(=O)NCc2ccccc2Cl)c2cccnc21 | -10% | 1.14
O=C(Nc1ccc(Cl)cc1)c1cnn2c1NCC[C@H]2C(F)(F)F | -5% | 0.96
CCOc1cccc(CNC(=O)[C@H]2CCN(c3cn[nH]c(=O)c3)C2)c1 | -15% | 2.12
O=C(NCCc1nccs1)c1n[nH]c2c1CCc1ccccc1-2 | -9% | 1.37
C[C@H](NC1(c2ccccc2Br)CC1)c1cnccn1 | -11% | 1.57

SMILES | % Inhibition | Z score
O=C(C[C@H]1CCCCN(Cc2ccccc2)C1=O)NCc1ccccc1 | -7% | 1.27
CS(=O)(=O)N1CCC(CNC(=O)NC[C@H]2CCCc3ccccc32)CC1 | -7% | 1.04
Cc1nsc(N2CCc3c(F)cc(F)cc3C2)n1 | -10% | 0.96
Cc1ccc(C(=O)NCc2ccn3ccnc3c2)c(Br)c1 | -1% | 0.08
O=C(Cc1cccs1)N1CC(F)(F)C[C@H]1c1nncn1CC1CC1 | -6% | 0.78
COc1ccc(-c2cc3c(=O)n(CC(=O)N4CCN(C(=O)c5ccco5)CC4)nc(C)n3n2)cc1 | -10% | 1.44
CC1CN2C(=O)CN(C(=O)Nc3ccc(F)c(F)c3F)CC2c2ccccc21 (centres undefined) | -13% | 1.8
COc1ccccc1CC(=O)NCc1nnc2n1CCC2 | -13% | 1.32
C[C@]1(C(=O)N2CCN(C/C=C/c3ccccc3)CC2)CC1(Cl)Cl | -13% | 1.46
O=C(Cn1nc2c3sc(N4CCCC4)nc3ncn2c1=O)NCc1ccccc1 | -7% | 1.14
CC[C@@H](C(=O)n1nc(-c2ccc(F)cc2)nc1N)c1ccccc1 | -5% | 0.77
CC(C)c1ccnc(NCCCCN2CCCC2)n1 | 5% | -0.99
CC(C)c1nc(C2CCN(C(=O)c3cc(N4CCNC(=O)C4)ccn3)CC2)no1 | -4% | 0.47
Cn1cccc1C1=NN(C(=O)CN(CCN2CCOCC2)C(=O)c2ccccc2Cl)[C@H](c2ccc(Cl)cc2)C1 | -14% | 2.23
COCCCn1c(C)cc(C(=O)N2CC[C@@]3(COC)CN(S(C)(=O)=O)C[C@H]3C2)c1C | -7% | 0.85
Cn1cc(CCCNC(=O)C[C@H]2CCCOC2)cn1 | -15% | 1.88
COc1ccccc1N1CCN(C(=O)c2nn(-c3ccccc3)c3c(=O)n(C)cnc23)CC1 | -11% | 1.01
Nc1nc(N2CCC(c3nccn3CC3CC3)CC2)c2nc[nH]c2n1 | -18% | 3.49
CCC[C@H](C)C(=O)NCC1(C)CCOCC1 | -3% | 0.52
O=C(CC1CCCC1)N1CCC2(CC1)C[C@@H](Cc1nc(-c3cccnc3)no1)CCO2 | -8% | 0.95
COC1([C@H](C)NCc2cc[nH]n2)CCCCC1 | -13% | 1.77
